Measured values as given in PubChem BioAssay AID624417 (National Center for Advancing Translational Sciences (NCATS), 2012).
Values joined by “and” are separate entries in the source; they are usually repeats but may differ in a detail not shown here. Equal values may be shown once. In all, about 410,000 compounds went through this assay and about 6,400 (1.6%) were called active. This list was built around the results that the source calls inconclusive (neither active nor inactive); the mix of calls is not that of the screen. The call rests on the fitted dose curve; in most records, active means well fitted inhibition curve with a large enough effect; inconclusive means small, poorly fitted or top-dose-only effect; inactive means no such curve, though single readings can be large or run the other way. A potency beside an inconclusive call is a rough fit, not a confirmed value.

target: Glucagon-like peptide 1 receptor (Homo sapiens) (UniProt P43220); assay: qHTS of GLP-1 Receptor Inverse Agonists (Inhibition Mode); details: HEK293 GLP-1R CRE-luciferase, luminescence, 24 h, GLP-1R form is constitutively active; activity change, negative = inhibition: at 38.3 µM (top of the series) unless noted; further: nearly all actives have a fitted effect of over 55% in size
How it was run: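 HEK293 cells stably co-expressing constitutively active GLP-1R and a cAMP-responsive luciferase reporter were seeded in DMEM with 10% Nu serum, given compounds after 12 h, and incubated 24 h at 37 deg C. Luminescence was then read.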
On the % scale 0 is the no-effect control and ±100 the full control effect; potency means the concentration at half of the fitted maximal effect; tags describe the fitted curve by direction and shape.

UniProt P43220, sequence (P43220 whole entry, looked up): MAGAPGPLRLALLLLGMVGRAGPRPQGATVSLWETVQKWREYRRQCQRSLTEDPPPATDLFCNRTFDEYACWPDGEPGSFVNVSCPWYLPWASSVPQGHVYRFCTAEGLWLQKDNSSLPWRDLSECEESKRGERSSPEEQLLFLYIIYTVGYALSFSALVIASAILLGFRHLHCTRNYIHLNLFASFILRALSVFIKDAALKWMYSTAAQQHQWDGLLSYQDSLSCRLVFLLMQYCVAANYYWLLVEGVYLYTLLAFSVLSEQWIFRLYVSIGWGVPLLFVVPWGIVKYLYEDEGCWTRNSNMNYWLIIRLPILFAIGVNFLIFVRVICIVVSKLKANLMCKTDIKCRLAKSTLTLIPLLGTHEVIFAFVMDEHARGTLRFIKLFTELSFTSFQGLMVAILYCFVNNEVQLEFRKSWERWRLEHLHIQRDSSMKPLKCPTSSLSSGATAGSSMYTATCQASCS

Potency, active:
COc1ccc(CSc2nnc(Cc3sc(-c4ccccc4)nc3-c3ccccc3)o2)cc1 10 µM
CC1(C(=O)NCc2cccc3ccccc23)CCN1Cc1ccccc1OC(F)F (stereo not given) 12.6 µM
COc1cc2nc(Nc3ccc(C)c(Cl)c3)nc(N)c2cc1OC 3.16 µM

Potency, inconclusive:
CCOC(=O)C1=C(C)NC(=S)NC1c1cc(C)sc1C (stereo not given) 28.2 µM [inhibitor, single point]
Cc1cc(C)c2oc(=O)cc(CN3CCCCC3)c2c1 6.31 µM [inhibitor, partial curve]
CCN1CCCC1CNC(=O)c1cc2cc(F)ccc2[nH]1 (stereo not given) 6.31 µM [inhibitor, partial curve, poor fit]
CCOC(=O)c1ccc(N/C(=N\S(=O)(=O)c2ccccc2C)c2ccccc2)cc1 3.98 µM [inhibitor, partial curve]
COc1cc(/C=C2/C(=O)N=C(N)N2C)cc(OC)c1OC 0.501 µM [inhibitor, full curve, poor fit]
O=C(NCCCN1CCOCC1)c1cccc(S(=O)(=O)N2CCc3ccccc3C2)c1 11.2 µM [inhibitor, partial curve, poor fit]
O=C(O)c1ccccc1-c1ccccc1C(=O)Nc1ccc(-c2nc3cc(Cl)ccc3o2)cc1 28.2 µM [inhibitor, single point]
CCn1nc(NC(=O)c2ccccc2)c2cc3cccc(C)c3nc21 28.2 µM [inhibitor, single point]
CC(=O)c1cc(-c2ccccc2)n(CCC(=O)Nc2ccc(C(C)C)cc2)c1C 11.2 µM [inhibitor, single point]
CC1=N/C(=C\c2ccc([N+](=O)[O-])cc2)C(=O)N1c1ccc(Br)c(C)c1 7.94 µM [inhibitor, partial curve, poor fit]
CCC(=O)Nc1cccc(C2=NN(c3ccccc3)C(c3ccc(OC)cc3)C2)c1 (stereo not given) 11.2 µM [inhibitor, partial curve, poor fit]
COc1ccc(CN2CCCC(C(=O)c3ccc(SC)cc3)C2)cc1Cn1cccn1 (stereo not given) 12.6 µM [inhibitor, single point]
Cc1ccc(C(=O)Nc2ccc(Oc3cccc(C(F)(F)F)c3)nc2)cc1 6.31 µM [inhibitor, partial curve, poor fit]
O=Cc1ccc(N2N=C(c3ccccc3)CC2c2ccccc2)cc1 (stereo not given) 8.91 µM [inhibitor, partial curve, poor fit]
CCOc1ccc(C(=O)N[C@H](C(=O)Nc2ccc(OC)c(S(=O)(=O)N3CCOCC3)c2)C(C)C)cc1 10 µM [inhibitor, single point]
COc1ccc(N(CC(=O)NCCSCc2ccccc2C)S(=O)(=O)c2ccccc2)cc1 10 µM [inhibitor, single point]
CCCCC(=O)OCC(=O)C1(O)Cc2c(O)c3c(c(O)c2C(OC2CC(NC(=O)C(F)(F)F)C(O)C(C)O2)C1)C(=O)c1c(OC)cccc1C3=O (stereo not given) 28.2 µM [inhibitor, partial curve, poor fit]
O=C1NC2(CCCCCC2)C(=O)N1Cc1cccc(Cl)c1 3.55 µM [inhibitor, partial curve, poor fit]
Cc1ccc(NC(=O)Cc2nc(COC(=O)c3c(F)cccc3Cl)cs2)cc1 10 µM [inhibitor, partial curve, poor fit]
COc1cc(Cl)c(C)cc1NC(=O)CN(C)Cc1cccc(OC)c1OC 20 µM [inhibitor, single point]
CC1CCN(c2nc3ccc(C(=O)O)cc3s2)CC1 3.55 µM [inhibitor, full curve, poor fit]
CC(C)(C)c1nc(SCC(=O)c2ccccc2)c2ccccc2n1 10 µM [inhibitor, partial curve, poor fit]
O=C(CN1CCN(S(=O)(=O)c2ccccc2)CC1)NC(=O)NC1CCCCC1 31.6 µM [inhibitor, partial curve, poor fit]
Cc1ccc(S[C@@H](CCN2CC[C@H](C)CCC2=O)c2ccccc2)cc1 10 µM [inhibitor, partial curve, poor fit]
COc1ccccc1-c1ccc2c(c1)C(C)(Cc1ccc(OC(F)(F)F)cc1)C(=O)N2 (stereo not given) 22.4 µM [inhibitor, single point]
Cc1cc(C(=O)CN2C(=O)NC3(CCCCC3)C2=O)c(C)n1-c1ccc2c(c1)OCO2 3.98 µM [inhibitor, partial curve, poor fit]
S=c1[nH]nc(COc2cccc(Cl)c2)n1Cc1ccccc1 11.2 µM [inhibitor, partial curve, poor fit]
Cc1ccc(CNC(=O)c2oc3ccc(S(=O)(=O)N4CCC(C)CC4)cc3c2C)cc1 11.2 µM [inhibitor, partial curve, poor fit]
CCN(c1cc(C)cc(C)c1)S(=O)(=O)c1nnc(NC(=O)C(C)(C)C)s1 1.26 µM [inhibitor, full curve]
CCN(CC(=O)NCc1ccc(Cl)cc1)C(=O)Cc1ccc(OC)cc1 22.4 µM [inhibitor, single point]
Cc1nc2c(o1)CCc1ccccc1C2N1CCN(C)CC1 (stereo not given) 1.41 µM [inhibitor, full curve] and 11.2 µM [inhibitor, single point]
Cc1ccc(C)c(OCCC(=O)NCCc2ccc(F)cc2)c1 28.2 µM [inhibitor, single point]
Cc1ccc(NS(=O)(=O)c2cccc(C(=O)NC3CCN(Cc4ccccc4)CC3)c2)c(C)c1 8.91 µM [inhibitor, partial curve]
CCn1c(SCC(=O)c2ccc(O)c(O)c2)nnc1-c1ccc(C)cc1 28.2 µM [inhibitor, single point]
NC(=S)N/N=C1\CCOc2ccc(Cl)cc21 10 µM [inhibitor, partial curve, poor fit]
CC(C)(C)NC(=O)Nc1nnc(SCC(=O)NC2CCCCC2)s1 11.2 µM [inhibitor, single point]
O=[N+]([O-])c1ccc(NCCCc2ccccc2)cc1 8.91 µM [inhibitor, partial curve, poor fit]
CCn1c(SCc2nc(-c3ccccc3)no2)nc2ccccc21 10 µM [inhibitor, partial curve, poor fit]
Cc1ccc(F)cc1NC(=O)c1ccc(NS(=O)(=O)c2ccc(Br)s2)cc1 11.2 µM [inhibitor, single point]
Cc1ccc(NC2CCCN(C(=O)c3cn(C)c4ccccc34)C2)cc1C (stereo not given) 28.2 µM [inhibitor, single point]
CNC(=S)Nc1cc(S(=O)(=O)Nc2cc(Cl)ccc2Cl)ccc1N1CCCC1 31.6 µM [inhibitor, single point]
COc1cc(C(=O)Nc2nc(C)c(Cc3ccc4c(c3)OCO4)s2)cc(OC)c1OC 1.26 µM [inhibitor, full curve, poor fit]
Cc1ccccc1OCc1n(CC(=O)OC2CC(C)CCC2C(C)C)c2ccccc2[n+]1C (stereo not given) 11.2 µM [inhibitor, partial curve, poor fit] and 28.2 µM [inhibitor, single point]
Cc1ccccc1CN1C(=O)C(O)(CC(=O)c2ccccc2)c2cc(Cl)ccc21 (stereo not given) 28.2 µM [inhibitor, single point]
CNC(=O)c1cc(-c2ccc(Cl)cc2)n(-c2ccccc2)n1 28.2 µM [inhibitor, single point]
O=C(NCCS(=O)(=O)NCc1ccccc1Cl)c1ccc2c(c1)OCO2 10 µM [inhibitor, partial curve, poor fit]
CC(=O)Nc1ccc(-c2csc(Nc3ccccn3)n2)cc1 28.2 µM [inhibitor, single point]
COc1ccc(OC)c(CCNC(=O)c2ccccc2NC(=O)C2=C(C)OCCS2)c1 0.891 µM [inhibitor, full curve, poor fit]
c1ccc(CCC2CCCCN2Cc2cn[nH]c2-c2cc3ccccc3o2)nc1 (stereo not given) 25.1 µM [inhibitor, single point]

Activity change, negative = inhibition, inactive:
COc1ccc(-c2cc(C(F)(F)F)n3nc(C(=O)O)c(Cl)c3n2)cc1OC 5.46%
CCOc1ccc(NC(=O)Cn2cc(C(=O)c3ccc(F)cc3)c(=O)c3cc4c(cc32)OCCO4)cc1 0.675%
Cc1nc(SCc2ccc(F)cc2)c([N+](=O)[O-])[nH]1 11.3%
CC(C)c1cc(C(=O)Nc2cccc(C(F)(F)F)c2)no1 -8.44%
COC(=O)c1[nH]c2ccc(C)cc2c1NC(=O)Oc1ccccc1 -4.9%
CCOC(=O)C1(C)CCN1C(=O)c1cc(F)cc(F)c1 (stereo not given) 17.2%
O=C(Nc1ncc(S(=O)(=O)c2ccc([N+](=O)[O-])cc2)s1)c1cccc2ccccc12 -4.97%
CC(C#N)(Nc1ccc(Cl)cc1)c1cccnc1 (stereo not given) -2.01%
